Test results: PubChem BioAssay AID652104 (National Center for Advancing Translational Sciences (NCATS), 2013)
Hit rate of the full screen: of about 410,000 compounds, about 7,200 (1.8%) were called active. This list was built around the results that the source calls inconclusive (neither active nor inactive); the mix of calls is not that of the screen. Calls come from the whole dose curve; as a rule, active = well fitted activation curve with a large enough effect; inconclusive = small, poorly fitted or top-dose-only effect, or another doubt; inactive = no such curve, though single readings can be large or run the other way. No potency is given beside an inconclusive call; the fits are too rough.

assay: qHTS of TDP-43 Inhibitors; settings: TDP-43 expressing yeast growth rescue, BacTiter-Glo, 24 h; growth rescue (activation): at 46.1 µM (top of the series) unless noted; note: nearly all actives have a fitted effect of over 50% in size; for growth rescue (activation): % of control where 0% means no effect
Outline: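 Galactose-induced TDP-43 yeast, OD600=0.02, compound pinned; 24 hr, 30 deg C; BacTiter-Glo luminescence for growth. Inhibitors of TDP-43 toxicity read as activators.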
Potency is the fitted concentration of half-maximal effect; tags give direction and shape of the fitted curve.

Compound | Potency | growth rescue (activation)
Cc1ccc2oc(-c3ccc(C)c(NC(=O)c4ccc(C(C)(C)C)cc4)c3)nc2c1 | inactive | 
CCCCc1nc2cc(C(=O)N3CCN(c4cnccn4)CC3)ccc2o1 | inconclusive [activator, partial curve] | 
O=c1cc(/C=C/c2ccccc2)oc2c1ccc1ccccc12 | inconclusive [activator, partial curve] | 
Cc1ccccc1NC(=O)/C(C#N)=C\c1cc(C)n(-c2ccc(C(=O)O)cc2)c1C | inconclusive [activator, partial curve] | 
O=C(COc1ccccc1)NC1CCCCC1 | inactive | 
CCOC(=O)c1c(C)n(CC(O)c2ccccc2)c2ccc(O)cc12 (configuration not stated) | inactive | 
COc1cccc(NC(=O)CSc2nccn(-c3ccc4c(c3)OCCO4)c2=O)c1 | inconclusive [activator, full curve, poor fit] | 
CCOC(=O)/C(C(=O)Nc1ccccc1Cl)=C1/NC(C)(C)Cc2ccccc21 | inactive | 
CCOC(=O)/C(N=Nc1sc(C(=O)OC)c(C)c1C(=O)OCC)=C(\O)CCl | inconclusive [activator, partial curve] | 
O=C(O)c1ccc(OS(=O)(=O)c2ccc(Cl)s2)c(Cl)c1 | inconclusive [activator, single point] | 
CC(Oc1ccc(Cl)cc1)C(=O)NNC(=S)NC(=O)c1ccco1 (configuration not stated) |  | inconclusive: -86.6% [activator]
CSc1nc2ncc3c(n2n1)CC1c2ccccc2CCN1C3=O (configuration not stated) | active: 15.8 µM | 
CCCn1c(NC(=O)C2CCN(C(=O)c3ccccc3C)CC2)nc2ccccc21 | inconclusive [activator, single point] | 
Cc1c(Cl)cc(-n2cnnn2)cc1[N+](=O)[O-] | inconclusive [activator, partial curve] | 
Brc1ccc(-c2cn3cccnc3n2)cc1 | inconclusive [activator, partial curve] | 
Cc1cccc(C2NC(=O)c3ccccc3N2)c1 (configuration not stated) | inconclusive [activator, partial curve] | 
CCOC(=O)c1c(C)nc2sc(C(=O)Nc3ccccc3)c(N)c2c1-c1ccc(OC)cc1 | inconclusive [activator, full curve, poor fit] | 
COc1ccc(NC(=O)C2=Cc3cccc(OC)c3OC2)cc1 | inconclusive [activator, single point] | 
O=C(NCSc1ccccc1)c1ccccc1 | inconclusive [activator, partial curve] | 
CCOc1ccccc1NC(=O)CSc1nccn1-c1ccccc1 | inconclusive [activator, partial curve, poor fit] | 
COC(=O)c1sc(=S)n(Cc2ccccc2)c1C | inconclusive [activator, single point] | 
COc1ccccc1N1CCN(/N=C/c2cc([N+](=O)[O-])ccc2Cl)CC1 | inconclusive [activator, partial curve] | 
Cc1cccc(OC(=O)c2cc(-c3ccc4c(c3)OCCO4)on2)c1 | inactive | 

Compound | Potency | growth rescue (activation)
NC(=O)c1c(NC(=O)c2ccc(N3C(=O)CCC3=O)cc2)sc2c1CCCC2 | inactive | 
N#C/C(=C\c1ccccn1)c1nc2ccccc2s1 | active: 17.8 µM | 
Cc1nc2ccc(S(=O)(=O)Nc3cccc(-c4nc5cccnc5s4)c3C)cc2s1 | inconclusive [activator, single point] | 
O=C(O)c1ccc(N/N=C2/CCSc3ccc(F)cc32)cc1 | active: 10 µM | 
CNC(=O)C1CCC(Cn2c(=O)[nH]c3ccsc3c2=O)CC1 (configuration not stated) | inconclusive [activator, partial curve] | 
Cc1ccccc1N1CC(C(=O)Nc2ccc3c(c2)OCO3)CC1=O (configuration not stated) | inactive | 
O=C(NCCc1ccccc1)Nc1nnc([C@@H]2C[C@H](O)[C@@H](CO)O2)s1 | inconclusive [activator, partial curve] | 
O=S(=O)(c1ccccc1)N1CCN=C1SCc1ccccc1 | inconclusive [activator, partial curve] | 
Cc1cccc(N2CCN(C(=O)n3ccnc3)CC2)c1C | inconclusive [activator, single point] | 
C=CCn1c(C)cc(C(=O)CSc2nc3ccccc3o2)c1C | active: 22.4 µM | 
Cc1ccc(-c2nc3ccc(Br)cn3c2Cc2cccc(Cl)c2)cc1 | active: 28.2 µM | 
CCOC(=O)[C@@H]1[C@H]2COc3ccccc3[C@H]2N2C(=O)N(c3ccc(Cl)cc3)C(=O)[C@]12C | active: 35.5 µM | 
NC(=S)NN=Cc1ccc(OC(=O)COc2cc(Cl)c(Cl)cc2Cl)cn1 | inconclusive [activator, partial curve, poor fit] | 
C=CCNC(=O)/C(C#N)=C/c1ccc(C)o1 | inconclusive [activator, single point] | 
O=C(Oc1ccccc1/C=C\C(=O)c1cc2ccccc2o1)c1cccc(F)c1 | inconclusive [activator, partial curve] | 
CC(=O)c1ccc(NC(=O)C2CCCN(c3ncnc4c3nc3n4CCCCC3)C2)cc1 (configuration not stated) | inconclusive [activator, partial curve] | 
C/C(=N\Nc1cc(C)nc(-c2ccccc2O)n1)c1ccccc1 | active: 10 µM | 
O=C1C=C(c2ccccc2)CC(/C=C/c2ccccc2)C1 (configuration not stated) | inconclusive [activator, partial curve] | 
O=C(Nc1cccc(NC(=O)c2ccc(Br)o2)c1)c1ccccc1 | inconclusive [activator, full curve] | 
CC1CCN(S(=O)(=O)c2ccc(C(=O)Nc3sccc3C(N)=O)cc2)CC1 | inconclusive [activator, single point] | 
COc1ccc(/C=C/C(=O)c2ccccc2)cc1Cn1nnc2ccccc21 | inconclusive [activator, partial curve] | 
O=C(c1ccc2c(c1)OCCO2)N(Cc1cccnc1)c1nc2c(F)cccc2s1 | inconclusive [activator, single point] | 
COc1cc(C)ccc1S(=O)(=O)NC(=O)C1(C)CCN1C(=O)C1(c2ccc(Cl)cc2)CCC1 (configuration not stated) | active: 28.2 µM | 

Compound | Potency | growth rescue (activation)
Cc1cccc(-c2noc(CN(C(=O)c3ccccc3Cl)C(C)C)n2)c1 | inconclusive [activator, partial curve] | 
COc1ccc(CNC(=O)c2c(C)oc3c2C(=O)c2ccccc2C3=O)cc1 | inconclusive [activator, partial curve] | 
Cc1cc2oc(=O)c(CC(=O)O)c(C)c2c2occ(-c3ccc(F)cc3)c12 | inconclusive [activator, single point] | 
CO/N=C/C(=N\Nc1ccccc1)C(=O)c1ccccc1 | inconclusive [activator, single point] | 
Cc1cccc(N2CCN(C(=O)COc3cc(=O)n(C)c4ccccc34)CC2)c1C | inconclusive [activator, single point] | 
Cc1ccc2nc(-c3ccc(Cl)cc3)c(Cc3ccccc3C(F)(F)F)n2c1 | inconclusive [activator, partial curve] | 
CCc1c(-c2cccc(Cl)c2)ncn1Cc1cccc(-c2ccccc2)c1 | inconclusive [activator, single point] | 
COc1ccc(/C=N/NC(=O)c2cccnc2)cc1COc1ccc([N+](=O)[O-])c(C)c1 | inconclusive [activator, single point] | 
O=C(NCCc1ccc(Cl)cc1)c1ccc(Cn2c(=O)c3cccn3c3cccnc32)cc1 | inconclusive [activator, full curve, poor fit] | 
Cc1ccc2c(Cl)c(C(=O)NC3CC3)sc2c1 | inconclusive [activator, partial curve] | 
COc1cccc(/C(O)=C2/C(=O)C(=O)N(Cc3ccco3)C2c2ccncc2)c1 (configuration not stated) | inconclusive [activator, single point] | 
CC(=O)N1CCc2cc(CNS(=O)(=O)c3ccc(Br)s3)ccc21 | inconclusive [activator, partial curve, poor fit] | 
COc1nc(N)nc(NC23CC4CC(CC(C4)C2)C3)n1 | inconclusive [activator, single point] | 
O=C(CSC1=Nc2ccccc2N=C(c2ccc(F)cc2)C1)NCc1ccccc1 | inactive | 
COc1cccc(C2c3[nH]c4ccccc4c3C[C@H]3C(=O)N(C4CC4)CC(=O)N23)c1 (some centres not stated) | inactive | 
CCN(CCn1cccn1)C(=O)c1cc(COc2ccc(F)cc2Cl)on1 | inconclusive [activator, partial curve] | 
C=C1C(=O)[C@]23C[C@H]1CC[C@H]2[C@]1(C)[C@@H](OC(C)=O)CC[C@@](C)(C(=O)O)[C@H]1C[C@@H]3OC(C)=O | inconclusive [activator, partial curve] | 
COc1ccc(OCCCC(=O)N2CCCc3ccccc32)cc1 | inconclusive [activator, partial curve] | 
Cn1nnc2sc3c(c2c1=O)CCCC3 | inactive | 
COc1ccc(-c2nc3c4ccccc4ccn3c2Cc2ccsc2)cc1OC | inconclusive [activator, full curve] | 
O=C(Oc1cccc2cccnc12)c1ccc(N2C(=O)C3C4CCC(C4)C3C2=O)cc1 (configuration not stated) |  | inconclusive: -90.6% [activator]
